Assay results published in the supplement of paper PMC3334620.
Whole data set: some 33,000 sequences, median “E-score (-0.5 to 0.5)” near -0.032, cut for the highest 2% near 0.36. The list shows a part of the results.

These sequences were tested against T1, Sko1 (UniProt Q02100) (assay: PBM E-score (8-mer binding enrichment) (E-score (-0.5 to 0.5)); higher = stronger / more preferred TF binding; most listed sequences are background and not binding sites). Conditions: protein concentration: 200 nM; construct: GST-full length.
T1 sequence: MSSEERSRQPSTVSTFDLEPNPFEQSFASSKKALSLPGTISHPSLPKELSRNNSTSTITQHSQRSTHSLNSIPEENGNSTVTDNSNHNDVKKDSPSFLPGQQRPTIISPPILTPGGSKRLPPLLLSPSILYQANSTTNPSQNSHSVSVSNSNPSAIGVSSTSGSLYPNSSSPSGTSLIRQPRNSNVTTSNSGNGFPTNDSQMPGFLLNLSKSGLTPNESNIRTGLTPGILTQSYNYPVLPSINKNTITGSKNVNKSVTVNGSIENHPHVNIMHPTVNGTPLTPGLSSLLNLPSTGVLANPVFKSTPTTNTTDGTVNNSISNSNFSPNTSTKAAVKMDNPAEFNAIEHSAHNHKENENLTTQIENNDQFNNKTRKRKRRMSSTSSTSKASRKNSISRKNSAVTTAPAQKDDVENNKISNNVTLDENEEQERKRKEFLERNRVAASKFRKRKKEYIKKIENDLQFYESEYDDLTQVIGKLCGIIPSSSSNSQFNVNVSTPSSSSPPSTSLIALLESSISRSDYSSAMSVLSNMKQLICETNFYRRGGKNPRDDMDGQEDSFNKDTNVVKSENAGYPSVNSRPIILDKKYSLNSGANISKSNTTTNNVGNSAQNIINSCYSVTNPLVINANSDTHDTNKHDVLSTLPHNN
Summary of the method: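 Detection of bound protein used fluorescent anti-GST, with scans normalised by masliner. The proteins were GST-tagged yeast transcription factors applied at about 100-200 nM to universal all-10-mer Agilent arrays made double-stranded by primer extension. Each ungapped eight-base word, pooled with its reverse complement, was scored with an E-score from the Universal PBM Analysis Suite.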

Sequence	PBM E-score
ATTGCCCC	-0.164
CCTACTAC	-0.0403
TAACTGGA	-0.102
GCCGTGCA	-0.22
GGCCTACC	-0.208
ATGAGTAC	0.0497
CCTAGGTC	-0.153
AACTTTTA	0.254
CCTCGTAC	0.0527
CTGTCAAG	-0.125
GCTTTACC	0.137
CCTCAAAA	-0.0851
CTGACAAG	-0.11
GGAACCCC	-0.386
CTAATATA	0.302
AAGACGCC	-0.165
AGGCCAGG	-0.292
ATCAAAAG	0.0595
CACCTGCA	-0.167
GTAGCCGA	-0.0119
ACCCTTTC	-0.0379
ACAGACGC	-0.0185
GCCTCGTA	0.124
GAACGTGA	0.175
CATGCTAA	0.0633

Sequence	PBM E-score
GACGCTCC	-0.174
GGGCGCCC	-0.19
CGTCGGAG	0.0505
CTAATGCA	0.166
CACGTCTC	0.134
ATAAACCG	-0.0645
GCCTGAAA	0.00192
GCGCACCC	-0.124
ACACACGG	-0.0648
AACCGACC	-0.143
GAATAACC	-0.126
ATGCTGAG	-0.255
CAACGCAG	-0.0699
ACTGGTCT	-0.0908
CGCAGTTA	0.141
AATAAGCC	-0.0119
CCGCCTGA	-0.201
ATGAGCAT	0.121
CAGGTTTA	-0.124
AGCGATGA	0.0693
ATGAGAAA	0.0845
TAAGACGA	0.0713
CAGATATC	-0.0291
ACAAAGTC	-0.174
ACGGTGCC	-0.0731

Sequence	PBM E-score
ACTAGACT	-0.176
AGTGTCAA	0.00645
ACCTAGGT	-0.136
CCCGCACG	-0.0484
CCGCTGAC	-0.0713
AGTGAAAA	-0.0882
GAATCACC	-0.00243
GTATCGCA	-0.113
CGGGACCG	-0.299
ATATGTAA	0.258
ATAATGGG	0.0168
CAAGATAA	0.06
CGGACGAC	-0.165
ACTCCGTA	-0.113
AGACCAGC	-0.405
AGAGATCA	-0.0141
CTGTAATC	-0.174
ATCGAAAT	0.0953
ACGGAACT	0.0989
CAAGTTCG	-0.0747
ATCGACTA	0.0892
CAAGATGA	-0.0617
TAACGGGA	-0.0567
ACCCAAGG	-0.186
TATCAGCA	0.0232

Sequence	PBM E-score
GCTCCGAC	-0.252
ATTCTGCA	0.175
ATCTGGGC	-0.286
ATGCGCCA	-0.00554
AGACGTTC	0.125
ACCTAAAG	-0.0362
CCAAACCG	-0.149
GTCAAGAC	-0.0149
GACCGCAC	-0.214
TGGCACCA	-0.236
CTTATCGC	-0.124
ACGGTTCC	-0.193
ATTGTGGG	-0.197
GCAGTCCA	-0.187
AGCGCGAT	-0.0488
AAGGTCTG	-0.134
ATTTCGCA	0.2
CCAATTCG	0.0345
AGTAAGCC	-0.266
CGTAAGTA	0.354
AGATAAGC	0.0674
CTCACATC	-0.0468
CCCAAAGG	-0.114
CAACCAAA	0.00349
AGGGAGAA	-0.143

Sequence	PBM E-score
ACAAGTAG	-0.189
AACTCTAC	-0.0391
CCACTACA	0.0711
CCTCTTAA	-0.0534
CATTGCTA	0.2
AAATGCGC	0.13
GTGCAATA	0.122
AACCGTTA	-1e-05
GACCCATA	0.043
GATAATGA	0.252
AGGTGTCC	-0.2
AAGAAAGT	0.0785
CATCGTAA	0.317
ACTCTATA	0.0196
GGTCATCA	0.207
ACTCACGC	0.14
CCTGAGAC	-0.216
ACGATCGG	-0.0844
CGCCGTTC	-0.264
AGGGACCC	-0.354
CATATATA	0.25
GAGCTACA	-0.23
AGTAAAGC	0.195
TCCTTTCA	0.127
AACAGGAC	0.101

Sequence	PBM E-score
AACCGCCG	-0.0941
AGACAATG	0.08
ACCGTGGC	-0.252
ATGATGAC	0.327
AATCAAAG	-0.0996
CAGGGCTA	-0.144
CTCAGCAA	0.0587
AACACATG	0.115
AATTAAAG	0.0213
AGTCTATA	0.0604
GACGGCGA	-0.134
ACATTCCG	-0.138
AACGAAGT	0.0161
AAGCGAAA	-0.0358
AGAACGCG	-0.0454
CCAGGAAA	-0.00466
CGCGCGAA	0.0432
ACCATCTG	-0.3
CCTTCCTA	-0.27
CCACTGTC	-0.185
AGTTAAAG	0.0571
TGCTAGCA	0.123
GCACACTA	-0.00368
CGCTTCTA	-0.0149
AAGTGCGA	-0.0462

Sequence	PBM E-score
GCGTTTAA	0.146
CCGCCTTC	-0.409
CCCGAAGG	-0.192
AACTGGAA	-0.104
CGCCTTCA	-0.267
CCGCTTGC	-0.232
CATCAATC	0.116
GAGGAACC	-0.252
AGTGTGTG	-0.0482
ACGCACCT	0.126
AATATGGA	0.0432
ATACAGCC	-0.0833
CACCCCGC	-0.213
CATGGTTC	0.153
ATTGAGGC	-0.104
CTTGTGAC	0.117
ATGGACCG	-0.202
CCATACCA	-0.132
CAGGTTCC	-0.304
AGCTCAGA	-0.107
ACTTGGCC	-0.116
GGTCTTAC	0.107
GCGGTGTA	-0.0935
CTAGAAAG	-0.12
AGATACCT	-0.131

Sequence	PBM E-score
CGACTTTA	0.00116
TGAATGAA	0.197
GGGCAATA	-0.14
ATATCAGC	-0.053
AACGTGTA	0.247
AAAGACGG	-0.111
CACTCAAA	0.0598
CGGGCAGA	-0.133
AGAAGACG	0.193
GAACAACA	-0.0512
CTTTCTAC	0.189
CAGTGCGG	-0.212
CTAAACTC	-0.0134
TCATTACA	0.342
ATTACATA	0.386
AGATTACT	0.201
CCACCTCG	-0.302
ACTGCCTA	0.0604
AAAAGTAA	0.159
AGGTGAAT	-0.00384
ACATCCAG	-0.0541
CACGACGG	0.169
CCGAAAGG	-0.229
CGATAGCC	-0.0218
CCTGTTCG	-0.0292

Sequence	PBM E-score
TGTATGAA	0.0696
GGGATTCA	-0.192
AACTTCAT	0.113
CTCGTATA	0.0394
CCAATGCA	-0.148
AGAGAAAC	0.0722
CTGGGGCA	-0.33
TAACGTCA	0.48
AGAACCCC	-0.334
GTAAACGA	0.25
GTGACTGA	0.114
AACCGGCC	-0.212
GCGAGAAA	-0.0845
AAGGCGCA	-0.0485
AGTGCTAT	-0.0679
CAATGAGG	-0.0905
CAATAGGC	-0.173
CTGTATGC	-0.137
GGGGGGAA	-0.365
GAAAGATC	-0.118
GAGGGGCA	-0.268
GGAAGGTA	-0.103
GAGTAACC	-0.0223
ATGACTAC	0.123
CTAAGCGA	-0.352

Sequence	PBM E-score
CCAGTAAG	-0.0973
GCTCCTAC	0.0151
GCGCAGCA	-0.339
AGCTAGGC	-0.223
ACGTCCCA	0.23
CATGTCGC	0.0417
GGTACGGA	-0.174
ACTGCGAA	0.0584
AGGGTAGA	-0.149
ACAAGATA	0.0391
CGCCAACG	-0.0267
AGCCCCCG	-0.325
GGACGGAA	-0.12
GGTTGCCA	-0.215
GCAGCGAC	-0.262
ACTGGCGC	-0.0635
CCCTTCTA	-0.105
CGCGGACG	0.036
GGCACAGA	-0.221
AGCCGCCT	-0.293
ACTCTGAT	0.101
ACGCTTTG	0.0823
GCTATCCC	-0.234
AGCGTAAG	0.0565
CAGCCTAG	-0.295

Sequence	PBM E-score
ATCACGAG	0.0133
AGGACCAG	-0.302
AAGCAAAT	0.116
ATCGTTGC	0.00042
ATTGAACG	0.109
CTGGTAAA	-0.0322
GGCCAAAA	-0.00857
AGATGCGG	-0.119
CCAACCTA	-0.131
CATAACAC	0.198
CACCATAG	-0.171
CATGCAAA	0.0985
CATCTCAG	-0.071
ACGACACC	0.114
CAGCTGCG	-0.0892
ACGCGGAA	0.0704
AACCACCG	-0.0286
CTATCGAA	0.0258
GTACTTCA	0.271
ACCGTAGA	0.047
AAGGGCGG	-0.209
CGTACACG	0.335
AGCACTCA	-0.0652
CATCATCA	0.361
GACATTTA	0.0915

Sequence	PBM E-score
CGTTGGAC	0.0837
AAAGAAGA	0.0252
ACGGTGGC	-0.0763
AACGCAGG	-0.184
CCGGTATC	-0.278
ACCCGGTG	-0.157
ACGATGAA	0.123
CAAATGGC	-0.0357
CGGTCTGC	-0.149
AATTCCAT	-0.0002
CGACGAAA	0.266
GATAACCC	-0.236
ATTGTCCC	-0.216
GACTTGGA	-0.226
AGGGTTAA	-0.0609
CTGAGGAA	-0.107
GGTCTTGA	0.0182
CTGCTATC	-0.0506
AATTCGGG	-0.124
AAAGCCAG	-0.108
AAAACGCA	0.186
ACAGAATG	0.0222
ACATTTGC	0.0838
GGCCGCTA	-0.209
ACAACCCG	-0.112

Sequence	PBM E-score
AATGGACC	0.0339
ATAGTATC	0.132
AGCAAGTA	0.0608
ACCTGATG	-0.126
GAGAATAC	0.114
CATGACAA	-0.00914
CAGCCAGG	-0.215
ACGCCATA	0.393
CCTCTAGC	-0.13
CCGCATGA	0.0723
CCCCGTCC	-0.406
AAGCCGCG	-0.108
AACACGTG	0.395
GGTCTTAA	-0.0965
ACTGCCAG	-0.161
ATACCCAT	0.0607
CTTTGTAC	0.0159
TCTTGAAA	0.118
CTAGGCCA	-0.184
ACACAAGC	0.00974
TGACTTAA	0.197
AAATTCAA	0.181
CGAATCCC	-0.126
ACACTACT	-0.0134
CATCCTAA	0.173

Sequence	PBM E-score
AATTTGGG	0.0602
AGTGCCTA	-0.0535
ACTGCGAG	-0.177
AGAGCGCA	-0.242
AACTCGAC	0.0597
ATCCCAAT	0.00798
AAGAGGGT	-0.134
AGTCAATC	0.017
CTAGCATC	-0.0273
ACAACTGT	0.012
CGGGACGC	-0.234
AAGAGCTC	-0.114
ACCCGATC	0.028
AAGTGCAG	-0.0763
CACCTAGG	-0.031
ATCTCCTA	-0.0714
CTGAGCCC	-0.222
CTCTCTAA	-0.229
ACTACACC	0.0296
